Molecules are shown by their SMILES. Out of some 50,000 compounds screened, about 800 (1.6%) showed an effect of 50% or more. Some of the results follow.

The target of the assay is Bcl-2-like protein 10 (Homo sapiens) (UniProt Q9HD36). Description: Phenotype converters, Bcl-B/TR3 peptide binding displacement, primary biochemical FP (AID 1240).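 Further: 0% = Bcl-B with tracer peptide and DMSO and 100% = tracer peptide lacking Bcl-B.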 Conditions: GST-Bcl-B / FITC-TR3 peptide fluorescence polarization; stronger effect = higher value; compound at 3.75 mg/L.
Sequence of UniProt Q9HD36 (Q9HD36 whole entry, looked up): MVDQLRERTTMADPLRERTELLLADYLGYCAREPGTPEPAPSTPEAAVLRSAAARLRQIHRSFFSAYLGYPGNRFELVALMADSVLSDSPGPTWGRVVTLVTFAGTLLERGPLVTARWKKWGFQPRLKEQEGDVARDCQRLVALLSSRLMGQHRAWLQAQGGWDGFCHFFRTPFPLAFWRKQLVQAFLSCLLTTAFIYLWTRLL
As for `COCCNC(=O)c1cccc([N+](=O)[O-])c1C`, the displacement turned out to be 2%.

As to `COc1ccccc1CC1CC(=O)N(c2ccc(Cl)c(Cl)c2)C1=O` (centres undefined), the displacement worked out at 14.2%.

As to `CCCOc1ccc(/C=N/Nc2nc(C)cc(-c3ccccc3)n2)c(O)c1`, the displacement is -3.8%.

With `CCCCNC(=O)c1c(O)c2ccccc2n(C)c1=O`, the displacement is -2.6%.

Consider `O=C(Nc1cc(-c2ccc(F)cc2)[nH]n1)c1ccc(Br)cc1`, for which the displacement amounted to 13.7%.

Regarding `O=C(N/N=C/c1ccncc1)c1ccco1`, the displacement was 2.5%.

With `Cc1cc(C)n(C(=O)CN2C(=O)c3ccccc3C2=O)n1`, the displacement was 4.4%.

For `O=C1/C(=C\c2cc3c(cc2[N+](=O)[O-])OCO3)SC(=S)N1c1ccccc1`, the displacement came to 7.1%.

`CCCCCOC(=O)C1=C(C)NC2=C(C(=O)CC(C)(C)C2)C1c1cccc(Cl)c1` (centres undefined): the displacement came to 3.7%.

As to `COc1ccc(S(=O)(=O)n2nnc3ccccc32)cc1`, the displacement is 3.4%.

Turning to `CC1CCc2c(sc(NC(=O)CCC(=O)O)c2C(=O)Nc2ccc(Cl)cc2)C1` (centres undefined), the displacement is -1.4%.

Take `Cc1ccc(Cl)c(OCCCCN2CCCCC2)c1`: the displacement is -1.7%.

Regarding `Cc1ccc(C)c(OCC(=O)N/N=C/C=N/NC(=O)COc2cc(C)ccc2C)c1`, the displacement turned out to be 0.1%.

For `COc1ccc(N2C(=O)NC(=O)/C(=C/c3ccc(OCc4ccccc4F)c(OC)c3)C2=O)cc1`, the displacement is -39.4%.

In the case of `Cc1cccc(OCC(=O)NCCCN(C)C)c1`, the displacement was determined as 11.4%.

Take `COc1cccc(CN2CCN(C(=O)c3ccc(F)cc3)CC2)c1OC`: the displacement was -10.8%.

For `Cc1ccc(-c2csc(NC(=O)CCCC(=O)O)c2C(=O)OC(C)C)cc1`, the displacement was -9.2%.

Turning to `Cc1nc2cc(N=Cc3c[nH]c4ccccc34)ccc2n1C`, the displacement is 4.8%.

Turning to `c1ccc(Cn2c(CSc3nc4ccccc4o3)nc3ccccc32)cc1`, the displacement stood at 6.8%.

`CCOC(=O)c1c(NC(=O)/C=C/c2ccccc2)sc2c1CC(C)(C)OC2`: the displacement turned out to be 13.8%.

With `COC(=O)c1cccc(NC(=O)c2ccc(C)cc2)c1`, the displacement came out at 16.1%.

Consider `COc1ccc(Br)cc1C(=O)Nc1ccc2oc(-c3ccccc3F)nc2c1`, for which the displacement is 13.4%.

Turning to `CC(=O)Nc1c(C)ccc2c1C(C)CC21CCCC1` (centres undefined), the displacement was -11.9%.

In the case of `CCn1cc(C(=O)O)c(=O)c2cc(-c3ccc([N+](=O)[O-])o3)c(Cl)cc21`, the displacement is 33.9%.

In the case of `COc1ccc(C(=O)N2CCN(c3ccc([N+](=O)[O-])cc3)CC2)cc1Br`, the displacement amounted to 13.9%.

`COc1ccc([N+](=O)[O-])cc1NCc1ccco1`: the displacement is 8.5%.

On to `COc1ccc(C(=O)/C=C/Nc2ccccc2O)cc1`, for which the displacement worked out at 7.8%.

With `CSCCOC(=O)C1=C(C)NC(=O)NC1c1cccc([N+](=O)[O-])c1` (centres undefined), the displacement is 8.4%.

Turning to `Clc1cccc(CN2CCN(Cc3cccnc3)CC2)c1`, the displacement was -6.5%.

For the compound `O=C(Cc1ccccc1)Nc1ccc([N+](=O)[O-])cc1Cl`, the displacement was determined as 4.8%.

Consider `O=C(CSc1nnc(-c2ccco2)n1-c1ccccc1)NC(c1ccccc1)c1ccccc1`, for which the displacement was -16.2%.

Consider `O=C(N/N=C/c1ccc(OC(=O)c2ccco2)cc1)c1ccncc1`, for which the displacement was found to be 9.3%.

`O=C1C2C3CCC(O3)C2C(=O)N1c1ccccc1` (centres undefined): the displacement came out at 2.7%.

`CCOc1ccc2nc(SCC(=O)c3ccc(F)cc3)sc2c1`: the displacement is -14.5%.

Consider `CCOc1ccc2nc(SC3CC(=O)N(c4ccc(C)cc4C)C3=O)sc2c1` (centres undefined), for which the displacement was -8.7%.

On to `COc1ccc(N(C(=O)c2ccccc2F)C2C=CS(=O)(=O)C2)cc1` (centres undefined), for which the displacement is -3.6%.

On to `O=C1CCCC2=C1C(c1ccc(Cl)cc1Cl)Nc1ccc(C(=O)c3ccccc3)cc1N2` (centres undefined), for which the displacement was 0.1%.

Regarding `Cc1cn(S(=O)(=O)c2cc(Cl)ccc2Cl)cn1`, the displacement was 13.8%.

Consider `Cc1cc(C)c(NC(=O)c2cccc(I)c2)c(C)c1`, for which the displacement was -5.7%.

As for `COc1ccc(C(=O)Nc2ccc(OC)cc2[N+](=O)[O-])c(OC)c1`, the displacement amounted to 29.1%.

`CCN1C(=O)/C(=C\c2cc(Cl)c(O)c(Cl)c2)SC1=S`: the displacement is -58.1%.

As to `O=[N+]([O-])c1ccc(N/N=C(\c2ccccc2)c2ccncc2)c([N+](=O)[O-])c1`, the displacement worked out at 1.8%.

For `CCOC(=O)C(=CNc1ccc(OC)c(OC)c1)C(=O)OCC`, the displacement is 6.6%.

For `COc1cc(C(=O)N/C(=C/c2cccc([N+](=O)[O-])c2)C(=O)NCC(=O)O)cc(OC)c1OC`, the displacement is -4.5%.

Regarding `Cc1cccc(C(=O)Nc2ccc(C(=O)/C=C/c3cccs3)cc2)c1`, the displacement is -0.3%.

For the compound `O=C(Nc1ccc(Cl)c(Cl)c1)c1ccc([N+](=O)[O-])o1`, the displacement is -8%.

As for `CCC(CC)C(=O)Nc1cc(OC)ccc1OC`, the displacement worked out at 12.1%.

`COc1cc(C2C(C(=O)OCc3ccccc3)=C(C)NC3=C2C(=O)CC(C)(C)C3)ccc1OC(C)=O` (centres undefined): the displacement was -5.1%.

Regarding `Cc1nnc(NC(=O)C(Sc2ccccc2)c2ccccc2)s1` (centres undefined), the displacement was found to be 3.8%.

As to `O=C(Nc1ccc(Cc2ccc(NC(=O)Nc3ccccc3O)cc2)cc1)Nc1ccccc1O`, the displacement is 10.2%.

For `CCCOc1cccc(C(=O)Nc2ccc(Br)cc2C(=O)O)c1`, the displacement amounted to 8.3%.

Take `N#Cc1sc2nc(C3CC3)cc(-c3ccccc3)c2c1N`: the displacement is -7.5%.

On to `Cc1cc(NC(=O)C(C)C)ccc1NC(=O)c1cccs1`, for which the displacement stood at 3.2%.

Regarding `COc1ccc2oc(=O)c(C(=O)Nc3cccc(Cl)c3C)cc2c1`, the displacement is 16.4%.

With `O=C(O)CCCNS(=O)(=O)c1ccc(Br)cc1`, the displacement came out at 28.6%.

With `O=C(Oc1ccc2c(c1)oc(=O)c1ccccc12)c1ccccc1Cl`, the displacement was 1.4%.

For the compound `COCCNC(=O)/C=C/c1ccc2c(c1)OCO2`, the displacement came out at 14.1%.

Consider `Cc1cc(I)ccc1N/C=C/[N+](=O)[O-]`, for which the displacement came to 11.2%.

Turning to `O=C(Nc1cc(Cl)cc(Cl)c1)Nc1ccc(Cl)c(Cl)c1`, the displacement came out at 7.3%.

Regarding `C=CCN1C(=O)/C(=C\c2ccc(-c3ccc(F)c(Cl)c3)o2)SC1=S`, the displacement was 39.4%.

`O=C(Nc1ccccc1C(=O)N/N=C/c1ccc(F)cc1)c1ccccc1Br`: the displacement was -0.5%.

Turning to `COc1ccc(N(CC(=O)NCCc2ccc(F)cc2)S(=O)(=O)c2ccccc2)c(OC)c1`, the displacement was -5.4%.

As for `O=C(NCC1CCCO1)c1cnn2c(C(F)(F)F)cc(-c3ccc4c(c3)OCO4)nc12` (centres undefined), the displacement worked out at 24.9%.

For the compound `COc1ccc(C2C(C(=O)OC3CCCCCC3)=C(C)NC3=C2C(=O)CC(C)(C)C3)c(OC)c1OC` (centres undefined), the displacement is -2%.

Turning to `Cc1ccc(Nc2nc(N3CCOCC3)nc(N3CCOCC3)n2)cc1`, the displacement was 5.9%.

`CC(=O)Nc1ccc2[nH]c(C)cc(=O)c2c1`: the displacement is 5.4%.

As for `COc1ccc(C(N)=O)cc1N=NC1=C(O)CC(C)(C)CC1=O`, the displacement was -8.5%.

On to `CCCCOc1ccccc1NC(=O)c1cc(OC)c(OC)c(OC)c1`, for which the displacement was 18%.

Turning to `Clc1ccc(CNc2ncn[nH]2)cc1`, the displacement stood at 11.6%.

For the compound `CC(=O)Nc1ccc(NC(=O)c2ccco2)c(C)c1`, the displacement is -14%.

`COc1cc(/C=c2/sc3nc4c(Br)c(C)c(C)cc4n3c2=O)ccc1OCC(=O)O`: the displacement came to 15.9%.

On to `N/C(=N\OC(=O)/C=C/c1ccccc1)c1ccccn1`, for which the displacement was -0.2%.

Regarding `CCOc1ccc(/C=N/Nc2nc(N3CCOCC3)nc(N3CCOCC3)n2)cc1OC`, the displacement came out at 1.9%.

Regarding `O=C(Nc1cccc(Cl)c1)Nc1nnc(COc2ccc(F)cc2)s1`, the displacement came to 7.9%.

With `Cc1cccc(-c2nc3cc(NC(=O)c4cccc(Cl)c4Cl)ccc3o2)c1`, the displacement amounted to 10.9%.

With `Cc1cc2c(nc3s/c(=C\c4ccc(-c5ccc(F)cc5)o4)c(=O)n32)c(Br)c1C`, the displacement was -9%.

For `C=CCSc1nc2ccccc2n1C(=O)C1C(C=C(Cl)Cl)C1(C)C` (centres undefined), the displacement was determined as 7.1%.

On to `O=C(Nc1ccccc1C(=O)N1CCCC1)c1ccc(Cl)cc1`, for which the displacement is -3.6%.

For the compound `O=c1[nH]c(-c2ccc(-c3ccc([N+](=O)[O-])cc3)o2)nc2sc3c(c12)CCCC3`, the displacement is 18.8%.

With `COCCN1C(=O)/C(=C/c2ccc(O)c(OC)c2)SC1=S`, the displacement was -4.4%.

Turning to `COc1ccc2[nH]c3c(c2c1)CCn1c-3nc2scc(-c3ccccc3)c2c1=O`, the displacement was 0.2%.

As for `CC(NC(=O)c1ccc(Br)cc1)c1ccccc1` (centres undefined), the displacement came out at 6.5%.

As for `CC1CC(C)(C)NCCNC(C)CC(C)(C)NCCN1` (centres undefined), the displacement was found to be 5.2%.

For `Cc1cc(-c2nnc(-c3ccc4c(c3)OCO4)o2)ccc1[N+](=O)[O-]`, the displacement came out at 19.4%.

As to `Cc1c(NC(=S)NC(=O)/C=C/c2ccccc2)cccc1-c1nc2ncccc2o1`, the displacement turned out to be 2.1%.

For `CCn1c2c(c3cc(Br)ccc31)CCCC2O` (centres undefined), the displacement stood at 10.6%.

For `CCN(CC)c1ccc(/C=C2\C(=O)NC(=S)N(c3cccc(Br)c3)C2=O)o1`, the displacement was found to be 4.2%.

For the compound `c1ccc2c(c1)NC1CCCCC1C1(CCCCC1)N2` (centres undefined), the displacement came to 4.5%.

For `CCN(CC)c1ccc(/C=C2/C(=O)NC(=O)N(c3ccccc3)C2=O)cc1`, the displacement was -1.2%.

On to `Cc1ccc(/C(O)=C2\C(=O)C(=O)N(c3nccs3)C2c2cccc(Br)c2)cc1` (centres undefined), for which the displacement amounted to 29.5%.

For `Cc1c(Cl)cccc1NC(=O)/C(C#N)=C/c1ccc(C(=O)O)cc1`, the displacement was -0.6%.

In the case of `O=C1NC(=O)N(c2ccccc2)C(=O)/C1=C\c1cccc([N+](=O)[O-])c1`, the displacement worked out at 7.3%.

As to `CCOC(=O)c1c(NC(=O)CN2C(=O)c3cccc4cccc(c34)C2=O)sc2c1CCCC2`, the displacement was 1.6%.

With `CCOc1ccc(N(CC(=O)N2CCOCC2)S(=O)(=O)c2ccc(Cl)cc2)cc1`, the displacement was 10.7%.

As to `COC(=O)c1ccccc1NC(=O)COc1ccc2ccccc2c1`, the displacement amounted to 3.2%.

For the compound `COc1cc(/C=N/n2cnnc2)c([N+](=O)[O-])cc1OCCC(C)C`, the displacement worked out at 9.6%.

In the case of `COC(=O)c1ccc(C(=O)OC)c(NC(=O)c2c(Cl)cccc2Cl)c1`, the displacement is 9.6%.

With `Cc1ccc(NC(=O)/C=C/c2ccccc2Cl)c(Br)c1`, the displacement is 19.1%.

Regarding `CCN(CC)c1ccc(NC(=O)CCCOc2ccccc2)cc1`, the displacement was -5.8%.

For the compound `NC(=O)c1c(NC(=O)c2cc(Cl)ccc2[N+](=O)[O-])sc2c1CCCC2`, the displacement was -9.7%.

In the case of `Cc1[nH]c2ccccc2c1/C=C/c1nc2ccccc2c(=O)n1Cc1ccccc1`, the displacement is -5.8%.

Turning to `O=C(NC12CC3CC(CC(C3)C1)C2)C1CC(=O)N(c2ccc(Br)cc2)C1` (centres undefined), the displacement was determined as 7.6%.

As for `O=C1C/C(=C/Nc2ccccc2)C(=O)N1`, the displacement came out at 5.8%.

Regarding `COC(=O)c1c(NC(=O)CCCC(=O)O)sc2c1CCC(C)C2` (centres undefined), the displacement is -12.9%.

Regarding `CCc1ccc(-c2nc3cc(NC(=O)c4ccc([N+](=O)[O-])c(C)c4)ccc3o2)cc1`, the displacement is -1.7%.

Take `O=C1N=c2ccccc2=C1c1sc(Nc2cccc(Cl)c2Cl)nc1O`: the displacement is 15.8%.

In the case of `Cc1c(NC(=O)C(C)Oc2ccc(Cl)cc2Cl)c(=O)n(-c2ccccc2)n1C` (centres undefined), the displacement was found to be 0.3%.

With `O=c1[nH]cc(CN2CCOCC2)c(=O)[nH]1`, the displacement is -9.3%.

On to `COc1ccccc1NC(=O)c1c(NC(=O)C(C)(C)C)sc2c1CCCCC2`, for which the displacement is -2%.

For the origin of these results see PubChem BioAssay AID1240 (Sanford-Burnham Center for Chemical Genomics, 2008).
